Several values for one entry are separate records, joined by “and”; a condition that tells them apart may be missing. Identical values can stand only once.
Legend:
[1] = test system: Dengue virus type 2 strain 16681; settings: mouse, in vivo
[2] = test system: DENV-infected endothelial cells; type: cell-based; settings: for DENV-induced cell death (percent TUNEL+ apoptotic cells): DENV MOI of 1, 5 or 10, 4 μM zVAD-FMK or 25 μM fumonisin B1 from 30 min before infection, FIG. 6E
HUVEC = type: cell-based, human
HUVEC monolayer = settings: 24 h

Question: `COC(=O)CC(NC(=O)OC(C)(C)C)C(=O)CF` [Boc-D-FMK] was tested. Which “percentage of mice that developed hemorrhage” value [1] did it give?
Answer: greatly reduced

Question: What about the severity of hemorrhage [1] of the same compound?
Answer: greatly reduced

Question: For “benzyl-oxycarbonyl-valyl- alanylaspartic acid fluoro-methyl ketone [zVAD-FMK]”, which “DENV-induced cell death (percent TUNEL+ apoptotic cells)” value [2] is on record?
Answer: significantly reduced

Question: What about the “effect of TNF-α on DENV-induced endothelial cell death (MTT cell viability)” value (HUVEC) of the same compound?
Answer: reversed

Question: And the “effect of TNF-α on endothelial cell permeability (BSA in lower chamber)” value (HUVEC monolayer)?
Answer: to the level of controls

Question: Which “DENV-induced cell death (percent TUNEL+ apoptotic cells)” value [2] does the source give for `CCCC[C@@H](C)[C@@H](OC(=O)C[C@@H](CC(=O)O)C(=O)O)[C@H](C[C@@H](C)C[C@H](O)CCCC[C@@H](O)C[C@H](O)[C@H](C)N)OC(=O)C[C@@H](CC(=O)O)C(=O)O` [fumonisin B1] here?
Answer: significantly reduced

Question: With `CC(=O)N[C@@H](CS)C(=O)O` [NAC, N-acetyl cysteine] as the compound, how does the “DENV-induced endothelial cell death (percent TUNEL+ apoptotic cells)” value ([2]; 24 h) read?
Answer: partially reduced

Question: And the “effect of TNF-α on DENV-induced endothelial cell death (MTT cell viability)” value (HUVEC)?
Answer: reversed

Question: What does the source list for `COc1cc(C(C)=O)ccc1O` [apocynin, 4-hydroxy-3-methoxyacetophenone]?
Answer: kind of hemorrhage developed [1]: mild and local hemorrhage; percent hemorrhage development [1]: 28.6% and 21.4%

Reference: patent US20120207730A1 (priority 2008, published 2012)
